Data on 1 molecule can be found in PMC9105235 (International Journal of Molecular Sciences, 2022).

One data set concerns the target T1, YFP-CUL3-WT (human, UniProt Q13618).
T1 construct: Cullin 3 (CUL3), human cDNA subcloned into pEYFP; In the dimerisation BRET one copy carried luciferase as donor (CUL3-Luc) and the other YFP as acceptor (YFP-CUL3); both copies are written as this one molecule; also called CUL3-Luc (donor copy in the dimerisation BRET); source: HEK293, transfected; not shown: YFP, N-terminal, kept
As to the kind of experiment: FRET or BRET; BRET in HEK293 cells, fixed amount of luciferase/NanoLuc donor, increasing amounts of YFP acceptor; BRET50 from the hyperbolic curve, apparent affinity. Conditions: partners not purified.

The target of data set [1] is T2, Luc-KLHL7 (UniProt Q8IXQ5 1-586).
T2 construct: KLHL7; also called KLHL7-luciferase; source: HEK293, transfected
T2 sequence (looked up): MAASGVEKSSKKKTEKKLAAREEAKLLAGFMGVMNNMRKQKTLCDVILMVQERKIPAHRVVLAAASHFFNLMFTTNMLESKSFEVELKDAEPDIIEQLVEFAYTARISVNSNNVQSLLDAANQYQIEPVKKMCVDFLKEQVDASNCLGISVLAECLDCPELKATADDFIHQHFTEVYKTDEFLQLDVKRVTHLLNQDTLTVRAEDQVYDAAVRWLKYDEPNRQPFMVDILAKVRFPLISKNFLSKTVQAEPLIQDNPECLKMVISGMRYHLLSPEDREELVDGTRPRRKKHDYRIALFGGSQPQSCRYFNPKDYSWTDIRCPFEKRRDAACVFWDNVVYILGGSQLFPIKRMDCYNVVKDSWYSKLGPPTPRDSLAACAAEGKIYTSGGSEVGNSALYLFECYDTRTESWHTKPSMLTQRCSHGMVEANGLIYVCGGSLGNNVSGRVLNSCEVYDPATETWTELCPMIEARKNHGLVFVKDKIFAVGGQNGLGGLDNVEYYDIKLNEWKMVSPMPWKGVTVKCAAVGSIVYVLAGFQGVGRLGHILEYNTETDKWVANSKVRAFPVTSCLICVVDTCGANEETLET
Described as above. To be noted: partners not purified.

Data set [2] addresses T3, Luc-KLHL3 (human, UniProt Q9UH77 1-587).
T3 construct: KLHL3, human cDNA subcloned into phLuc; source: HEK293, transfected; not shown: luciferase, N-terminal, kept
T3 sequence (looked up): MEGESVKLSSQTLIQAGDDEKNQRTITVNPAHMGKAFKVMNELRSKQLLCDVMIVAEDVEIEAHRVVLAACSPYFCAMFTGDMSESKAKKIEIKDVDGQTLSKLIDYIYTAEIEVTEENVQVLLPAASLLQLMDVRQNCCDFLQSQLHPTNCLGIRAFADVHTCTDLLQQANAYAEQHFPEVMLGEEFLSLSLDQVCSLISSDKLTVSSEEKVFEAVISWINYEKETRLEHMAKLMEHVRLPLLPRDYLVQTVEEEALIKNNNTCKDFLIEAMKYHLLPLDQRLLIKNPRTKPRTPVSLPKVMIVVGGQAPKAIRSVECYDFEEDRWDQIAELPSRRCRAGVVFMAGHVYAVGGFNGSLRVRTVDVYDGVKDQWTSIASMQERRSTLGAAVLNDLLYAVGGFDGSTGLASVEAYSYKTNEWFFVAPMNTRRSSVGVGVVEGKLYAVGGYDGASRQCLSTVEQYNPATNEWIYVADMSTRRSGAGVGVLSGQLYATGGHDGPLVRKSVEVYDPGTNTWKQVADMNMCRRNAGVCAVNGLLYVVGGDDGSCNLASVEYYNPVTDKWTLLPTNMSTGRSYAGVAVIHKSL
The description is as above. Conditions: partners not purified.

A further data set concerns the target T4, nanoluc-Bacurd (UniProt Q8WZ19 1-329).
T4 construct: Bacurd1 (the text names Bacurd1, the legend and methods only Bacurd); also called Bacurd1; Bacurd-luciferase; source: HEK293, transfected
T4 sequence (looked up): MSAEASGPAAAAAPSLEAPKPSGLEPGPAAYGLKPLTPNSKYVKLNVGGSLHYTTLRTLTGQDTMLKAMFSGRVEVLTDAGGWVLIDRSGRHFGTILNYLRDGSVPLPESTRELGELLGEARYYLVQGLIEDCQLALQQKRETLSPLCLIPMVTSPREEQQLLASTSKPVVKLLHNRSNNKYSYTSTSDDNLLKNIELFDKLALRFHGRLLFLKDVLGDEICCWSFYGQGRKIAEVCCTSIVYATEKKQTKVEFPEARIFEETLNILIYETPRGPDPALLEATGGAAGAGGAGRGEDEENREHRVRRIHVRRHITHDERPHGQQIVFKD
The data set is described as above. To be noted: partners not purified.

Data set [3] concerns the molecule itself. The data set is described as above.
Data set [4] addresses T2, Luc-KLHL7. As to the kind of experiment: FRET or BRET; BRET in HEK293 cells as a2, cells pretreated with the neddylation inhibitor MLN4924 (unneddylated CUL3). To be noted: partners not purified.
Data set [5] has as its target T3, Luc-KLHL3. Described as above. To be noted: partners not purified.

B1: YFP-CUL3-∆9 (natural protein, human)
chain: [about 20 residues omitted]MDEKYVNSIWDLLKNAIQEIQRKNNSGLSFEELYRNAYTMVLHKHGEKLYTGLREVVTEHLINKVREDVLNSLNNNFLQTLNQAWNDHQTAMVMIRDILMYMDRVYVQQNNVENVYNLGLIIFRDQVVRYGCIRDHLRQTLLDMIARERKGEVVDRGAIRNACQMLMILGLEGRSVYEEDFEAPFLEMSAEFFQMESQKFLAENSASVYIKKVEARINEEIERVMHCLDKSTEEPIVKVVERELISKHMKTIVEMENSGLVHMLKNGKTEDLGCMYKLFSRVPNGLKTMCECMSSYLREQGKALVSEEGEGKNPVDYIQGLLDLKSRFDRFLLESFNNDRLFKQTIAGDFEYFLNLNSRSPEYLSLFIDDKLKKGVKGTECGCQFTSKLEGMFRDMSISNTTMDEFRQHLQATGVSLGGVDLTVRVLTTGYWPTQSATPKCNIPPAPRHAFEIFRRFYLAKHSGRQLTLQHHMGSADLNATFYGPVKKEDGSEVGVGGAQVTGSNTRKHILQVSTFQMTILMLFNNREKYTFEEIQQETDIPERELVRALQSLACGKPTQRVLTKEPKSKEIENGHIFTVNDQFTSKLHRVKIQTVAAKQGESDPERKETRQKVDDDRKHEIEAAIVRIMKSRKKMQHNVLVAEVTQQLKARFLPSPVVIKKRIEGLIEREYLARTPEDRKVYTYVA
notes: Cullin 3 (CUL3), human cDNA subcloned into pEYFP, exon 9 (amino-acids […]) deleted; In the dimerisation BRET one copy carried luciferase as donor (Luc-CUL3-∆9) and the other YFP as acceptor (YFP-CUL3-∆9); both copies are written as this one molecule; also called Luc-CUL3-∆9 (donor copy in the dimerisation BRET); source: HEK293, transfected; not shown: YFP, N-terminal, kept
On to B1, for which the BRET50 in the data set with YFP-CUL3-WT was 0.45 [Luc]/[YFP] ratio; with Luc-KLHL7 [1], 2.71 ± 0.89 [Luc]/[YFP] ratio; with Luc-KLHL3 [2], 0.911 ± 0.33 [Luc]/[YFP] ratio; in the data set with nanoluc-Bacurd it was 1.01 ± 0.2 [Luc]/[YFP] ratio; in data set [3], 1.27 [Luc]/[YFP] ratio; with Luc-KLHL7 [4] it was 2.41 ± 0.66 [Luc]/[YFP] ratio. The BRET50 with Luc-KLHL3 [5] was 1.17 [Luc]/[YFP] ratio.
